# Experimental data taken from the supplement of paper PMC8728848.
# The other results are listed elsewhere or left out.
# What was measured:
# Assay in all cases: glycan array binding signal (z-score within array); higher = stronger binding
# Conditions in all cases: glycan notation: IUPAC condensed, linker removed
# [1] = target: Neu5Ac(a2-3)Gal(b1-4)[Fuc(a1-3)]GlcNAc
# Method in brief: (§1)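 Glycan array binding is given as a within-array Z-score, which can be read as non-binding when negative. The arrays, 3228 of them, came from the Consortium for Functional Glycomics database and were retained only where the protein sequence was available. Z-scores were averaged across arrays of the same protein sequence at different concentrations or buffers and across linkers.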
# [2] = target: Neu5Ac(a2-3)Gal(b1-4)[Fuc(a1-3)]GlcNAc(b1-3)Gal
# Method in brief: as §1
# [3] = target: Neu5Ac(a2-3)Gal(b1-4)[Fuc(a1-3)]GlcNAc(b1-3)Gal(b1-4)GlcNAc
# Method in brief: as §1
# [4] = target: Neu5Ac(a2-3)Gal(b1-4)[Fuc(a1-3)]GlcNAc(b1-3)Gal(b1-4)[Fuc(a1-3)]GlcNAc(b1-3)Gal(b1-4)[Fuc(a1-3)]GlcNAc
# Method in brief: as §1
# [5] = target: Neu5Ac(a2-3)Gal(b1-4)[Fuc(a1-3)]GlcNAc(b1-6)[Gal(b1-3)]GalNAc
# Method in brief: as §1
# [6] = target: Neu5Ac(a2-3)Gal(b1-4)[Fuc(a1-3)]GlcNAc6S
# Method in brief: as §1
# [7] = target: Neu5Ac(a2-3)Gal6S(b1-4)GlcNAc
# Method in brief: as §1
# [8] = target: Neu5Ac(a2-3)Gal6S(b1-4)[Fuc(a1-3)]GlcNAc
# Method in brief: as §1
# Neu5Ac(a2-3)GalNAc = target: Neu5Ac(a2-3)GalNAc
# Method in brief: as §1
# [9] = target: Neu5Ac(a2-3)GalNAc(b1-4)GlcNAc
# Method in brief: as §1
# [10] = target: Neu5Ac(a2-3)[GalNAc(b1-4)]Gal(b1-4)Glc
# Method in brief: as §1
# [11] = target: Neu5Ac(a2-3)[GalNAc(b1-4)]Gal(b1-4)GlcNAc
# Method in brief: as §1
# [12] = target: Neu5Ac(a2-3)[Neu5Ac(a2-6)]GalNAc
# Method in brief: as §1
# Neu5Ac(a2-6)Gal = target: Neu5Ac(a2-6)Gal
# Method in brief: as §1
# Neu5Ac(a2-6)Gal(b1-4)Glc = target: Neu5Ac(a2-6)Gal(b1-4)Glc
# Method in brief: as §1
# [13] = target: Neu5Ac(a2-6)Gal(b1-4)GlcNAc
# Method in brief: as §1
# [14] = target: Neu5Ac(a2-6)Gal(b1-4)GlcNAc(b1-2)Man(a1-3)[Gal(b1-4)GlcNAc(b1-2)Man(a1-6)]Man(b1-4)GlcNAc(b1-4)GlcNAc
# Method in brief: as §1
# [15] = target: Neu5Ac(a2-6)Gal(b1-4)GlcNAc(b1-2)Man(a1-3)[GlcNAc(b1-2)Man(a1-6)]Man(b1-4)GlcNAc(b1-4)GlcNAc
# Method in brief: as §1
# [16] = target: Neu5Ac(a2-6)Gal(b1-4)GlcNAc(b1-2)Man(a1-3)[GlcNAc(b1-2)Man(b1-4)GlcNAc(b1-2)Man(a1-6)]Man(b1-4)GlcNAc(b1-4)GlcNAc
# Method in brief: as §1
# [17] = target: Neu5Ac(a2-6)Gal(b1-4)GlcNAc(b1-2)Man(a1-3)[Neu5Ac(a2-6)Gal(b1-4)GlcNAc(b1-2)Man(a1-6)]Man(b1-4)GlcNAc(b1-4)GlcNAc
# Method in brief: as §1
# [18] = target: Neu5Ac(a2-6)Gal(b1-4)GlcNAc(b1-2)Man(a1-6)[Gal(b1-4)GlcNAc(b1-2)Man(a1-3)]Man(b1-4)GlcNAc(b1-4)GlcNAc
# Method in brief: as §1
# [19] = target: Neu5Ac(a2-6)Gal(b1-4)GlcNAc(b1-2)Man(a1-6)[GlcNAc(b1-2)Man(a1-3)]Man(b1-4)GlcNAc(b1-4)GlcNAc
# Method in brief: as §1
# [20] = target: Neu5Ac(a2-6)Gal(b1-4)GlcNAc(b1-3)Gal(b1-4)GlcNAc
# Method in brief: as §1
# [21] = target: Neu5Ac(a2-6)Gal(b1-4)GlcNAc(b1-3)Gal(b1-4)[Fuc(a1-3)]GlcNAc(b1-3)Gal(b1-4)[Fuc(a1-3)]GlcNAc
# Method in brief: as §1
# [22] = target: Neu5Ac(a2-6)Gal(b1-4)GlcNAc6S
# Method in brief: as §1
# Neu5Ac(a2-6)GalNAc = target: Neu5Ac(a2-6)GalNAc
# Method in brief: as §1
# [23] = target: Neu5Ac(a2-6)GalNAc(b1-4)GlcNAc
# Method in brief: as §1
# Neu5Ac(a2-8)Neu5Ac = target: Neu5Ac(a2-8)Neu5Ac
# Method in brief: as §1
# [24] = target: Neu5Ac(a2-8)Neu5Ac(a2-3)Gal(b1-4)Glc
# Method in brief: as §1
# [25] = target: Neu5Ac(a2-8)Neu5Ac(a2-3)[GalNAc(b1-4)]Gal(b1-4)Glc
# Method in brief: as §1
# [26] = target: Neu5Ac(a2-8)Neu5Ac(a2-8)Neu5Ac
# Method in brief: as §1
# [27] = target: Neu5Ac(a2-8)Neu5Ac(a2-8)Neu5Ac(a2-3)Gal(b1-4)Glc
# Method in brief: as §1
# [28] = target: Neu5Ac(a2-8)Neu5Ac(a2-8)Neu5Ac(a2-3)[GalNAc(b1-4)]Gal(b1-4)Glc
# Method in brief: as §1
# [29] = target: Neu5Ac(a2-8)Neu5Ac(a2-8)Neu5Ac(a2-8)Neu5Ac(a2-3)[GalNAc(b1-4)]Gal(b1-4)Glc
# Method in brief: as §1
# [30] = target: Neu5Ac(b2-6)Gal(b1-4)GlcNAc
# Method in brief: as §1
# Neu5Ac(b2-6)GalNAc = target: Neu5Ac(b2-6)GalNAc
# Method in brief: as §1
# [31] = target: Neu5Ac9Ac(a2-6)Gal(b1-4)GlcNAc
# Method in brief: as §1
# [32] = target: Neu5Gc(a2-3)Gal(b1-3)GlcNAc
# Method in brief: as §1
# [33] = target: Neu5Gc(a2-3)Gal(b1-3)[Fuc(a1-4)]GlcNAc
# Method in brief: as §1
# Neu5Gc(a2-3)Gal(b1-4)Glc = target: Neu5Gc(a2-3)Gal(b1-4)Glc
# Method in brief: as §1
# [34] = target: Neu5Gc(a2-3)Gal(b1-4)GlcNAc
# Method in brief: as §1
# [35] = target: Neu5Gc(a2-3)Gal(b1-4)[Fuc(a1-3)]GlcNAc
# Method in brief: as §1
# [36] = target: Neu5Gc(a2-6)Gal(b1-4)GlcNAc
# Method in brief: as §1
# Neu5Gc(a2-6)GalNAc = target: Neu5Gc(a2-6)GalNAc
# Method in brief: as §1
# [37] = target: Neu5Gc(b2-6)Gal(b1-4)GlcNAc
# Method in brief: as §1
binder,measurement,setting,value
"R410P1E11 (Tachypleus tridentatus), TAL2_TACTR (protein) MEKGTPPTHDSDNWMGRAKEIGNGGWDQFQFLFFDPNGYLYAVSNDKLYKASPPQSDTDNWIARATEIGSGGWSGFKFLFFHPNGYLYAVRGQRFYKALPPVSNQD",glycan array binding signal (z-score),[1],-0.448
same,glycan array binding signal (z-score),[2],-0.706
same,glycan array binding signal (z-score),[3],-0.635
same,glycan array binding signal (z-score),[4],0.798
same,glycan array binding signal (z-score),[5],-0.087
same,glycan array binding signal (z-score),[6],-0.385
same,glycan array binding signal (z-score),[7],-0.344
same,glycan array binding signal (z-score),[8],-0.473
same,glycan array binding signal (z-score),Neu5Ac(a2-3)GalNAc,-0.169
same,glycan array binding signal (z-score),[9],0.139
same,glycan array binding signal (z-score),[10],0.332
same,glycan array binding signal (z-score),[11],-0.156
same,glycan array binding signal (z-score),[12],-0.27
same,glycan array binding signal (z-score),Neu5Ac(a2-6)Gal,1.23
same,glycan array binding signal (z-score),Neu5Ac(a2-6)Gal(b1-4)Glc,-0.166
same,glycan array binding signal (z-score),[13],-0.064
same,glycan array binding signal (z-score),[14],-0.583
same,glycan array binding signal (z-score),[15],-0.263
same,glycan array binding signal (z-score),[16],-0.735
same,glycan array binding signal (z-score),[17],-0.539
same,glycan array binding signal (z-score),[18],-0.38
same,glycan array binding signal (z-score),[19],-0.324
same,glycan array binding signal (z-score),[20],0.73
same,glycan array binding signal (z-score),[21],-0.448
same,glycan array binding signal (z-score),[22],-1.2
same,glycan array binding signal (z-score),Neu5Ac(a2-6)GalNAc,-0.406
same,glycan array binding signal (z-score),[23],-0.042
same,glycan array binding signal (z-score),Neu5Ac(a2-8)Neu5Ac,-0.039
same,glycan array binding signal (z-score),[24],0.579
same,glycan array binding signal (z-score),[25],-0.255
same,glycan array binding signal (z-score),[26],-0.105
same,glycan array binding signal (z-score),[27],-0.781
same,glycan array binding signal (z-score),[28],-0.267
same,glycan array binding signal (z-score),[29],-0.502
same,glycan array binding signal (z-score),[30],-0.614
same,glycan array binding signal (z-score),Neu5Ac(b2-6)GalNAc,-0.437
same,glycan array binding signal (z-score),[31],-0.241
same,glycan array binding signal (z-score),[32],-0.066
same,glycan array binding signal (z-score),[33],-0.517
same,glycan array binding signal (z-score),Neu5Gc(a2-3)Gal(b1-4)Glc,-0.082
same,glycan array binding signal (z-score),[34],-0.156
same,glycan array binding signal (z-score),[35],-0.277
same,glycan array binding signal (z-score),[36],0.352
same,glycan array binding signal (z-score),Neu5Gc(a2-6)GalNAc,0.337
same,glycan array binding signal (z-score),[37],-0.186
